# Out of some 52,000 compounds screened, about 1,700 (3.3%) were called active. No stated cut-off is given here; in the data, active means survival mostly below about 52% (no sharp cut-off); inactive means mostly above about 56%. This is one part of the list.
# Tested on: Wild type
# Test: S. aureus survival, RN4220 and DeltatarO strains – OD600, teichoic acid synthesis inhibitors, primary screen (AID 463173)
# Details: S. aureus RN4220 wild type/DeltatarO growth, OD600, 18 h, hits give low values, screened at 18.75 µg/mL (by protocol)
row,SMILES,survival
1,CC(C)N(Cc1ccccc1)C(=O)CN1C(=O)COc2ccc(S(=O)(=O)N3CCCCCC3)cc21,inactive: 93%
2,CCN(C(=O)c1cnc(N2CCOCC2)c2ccccc12)c1cc(C)ccc1C,inactive: 71%
3,CCOc1ccccc1NC(=O)c1ccc2c(Cl)c3c(nc2c1)CCCC3,inactive: 46%
4,Cc1cc(NC(=O)C(C)(C)Oc2ccc(Cl)cc2)cc(-c2nc3ncccc3o2)c1O,inactive: 92%
5,CCOc1ccc(-c2nnc(SCC(=O)NCCc3ccccc3)nc2-c2ccc(OCC)cc2)cc1,inactive: 73%
6,COc1cccc(CNc2nc3c(-c4cccc(C)c4)nnn3c3ccccc23)c1,inactive: 84%
7,CC(=O)Nc1ccc(NC(=O)CCC(=O)c2ccc(C)cc2)cc1,inactive: 68%
8,O=C(OCc1cc(=O)n2nc(-c3cccs3)sc2n1)c1ccccc1Br,inactive: 83%
9,CNc1oc(-c2ccc(COc3ccc(C)cc3)o2)nc1C#N,inactive: 82%
10,CCOc1ccccc1NC(=O)c1cnc(N2CCOCC2)c2ccccc12,inactive: 99%
11,COc1ccc(OCc2nc3c4c(-c5ccc(OC)cc5)c(-c5ccc(OC)cc5)oc4ncn3n2)cc1,inactive: 71%
12,CCOC(=O)c1ccc(NC(=O)CSc2nccn2Cc2ccc(OC)cc2)cc1,inactive: 85%
13,Cc1cc(C)cc(C(=O)Nc2nnc3n2CCS3)c1,inactive: 68%
14,CC(=O)c1cccc(NC(=O)c2c(C)nn(-c3ccc(F)cc3)c2-n2cccc2)c1,inactive: 121%
15,O=C(CSc1ncc2c(n1)-c1cc(Cl)ccc1N(Cc1ccccc1F)S2(=O)=O)Nc1cccc(C(F)(F)F)c1,inactive: 45%
16,CCCCCN1C(C(=O)c2ccccc2)=C(NC(C)=O)c2ccccc2S1(=O)=O,inactive: 60%
17,COC(=O)c1cc(NC(=O)c2ccc3c(c2)N(Cc2cccc(Cl)c2)C(=O)c2ccccc2S3=O)cc(C(=O)OC)c1 (stereo not drawn),inactive: 75%
18,CCCn1c2ccccc2c2cnn(CC(=O)Nc3ccc(C)cc3Br)c(=O)c21,inactive: 87%
19,Cc1cc2ccccc2n2c(SCC(=O)Nc3cccc(C(F)(F)F)c3)nnc12,inactive: 87%
20,Cc1cc(Cl)ccc1OCC(=O)N(Cc1ccc(N(C)C)cc1)CC1CCCO1 (stereo not drawn),inactive: 106%
21,CC(C)Nc1ccc(-c2nc(-c3ccccn3)no2)cc1[N+](=O)[O-],inactive: 72%
22,CCc1ccc(NC(=O)c2sc3nc(C)c(Cl)c(C)c3c2NC(=O)c2ccccc2)cc1,inactive: 67%

row,SMILES,survival
1,COc1ccc(C)cc1NC(=O)CCNS(=O)(=O)c1cccc2nonc12,inactive: 59%
2,O=C(CSc1ncn[nH]1)Nc1ccc(F)cc1,inactive: 127%
3,Cc1cccc(CNC(=O)c2sc3ncnc(N(C)C4CCCCC4)c3c2C)c1,inactive: 64%
4,CCN(CC)c1nc(-c2ccccc2Cl)c2cc(Br)ccc2n1,inactive: 76%
5,O=C(C1CC1)N1CCN(c2nc3c(F)cc(F)cc3s2)CC1,inactive: 124%
6,Cc1nn(-c2ccccc2)c2nc(C3CC3)cc(C(=O)NCc3ccccc3Cl)c12,inactive: 79%
7,COCCn1c(COc2cccc(OC)c2)nnc1SCC(=O)NC1CCCC1,inactive: 98%
8,O=S(=O)(c1ccc(-c2cnc(C3CC3)o2)cc1)N1CCN(c2cccc(Cl)c2)CC1,inactive: 71%
9,Cc1cccc(S(=O)Cc2ccc(C(=O)NC3CCCCCC3)o2)c1 (stereo not drawn),inactive: 82%
10,CCOc1ccccc1C(=O)Nc1cc(-c2ccc(C)cc2)no1,inactive: 89%
11,Cc1ccc(C(=O)Nc2ccc(C(=O)OCc3cc(=O)n4c5c(sc4n3)CCCC5)cc2)cc1,inactive: 88%
12,Cc1c(-c2ccccc2)n(-c2ccccc2O)c2nc3c(c(=O)n(C)c(=O)n3C)n12,inactive: 75%
13,CCc1cccc(C)c1NC(=O)C1=C(C)C(=O)OC12CCC(C)CC2 (stereo not drawn),inactive: 75%
14,CCCOc1ccc(C2=NC(c3ccc(F)cc3)=Nc3ccc(OC)cc3N2)cc1,inactive: 77%
15,O=C(c1ccc2c(c1)N(Cc1ccccc1)C(=O)c1ccccc1S2=O)N1CCC(Cc2ccccc2)CC1 (stereo not drawn),inactive: 97%
16,Cc1ccc2c(c1)c(=O)c(S(=O)(=O)c1ccc(C)c(C)c1)cn2CC(=O)Nc1ccccc1,inactive: 73%
17,COc1ccccc1Nc1ncc(C(=O)Nc2ccc(OC)c(OC)c2)c2ccccc12,inactive: 68%
18,COc1ccc(NC(=O)NCC2CCN(Cc3ccccc3F)CC2)c(OC)c1,inactive: 70%
19,Cc1ccc(Nc2ncnc3c2nc2n3CCCC2)c(Br)c1,inactive: 111%
20,COc1ccccc1CNC(=O)c1cnc2sc(N3CCOCC3)nn2c1=O,inactive: 153%
21,COc1ccc(N2CCN(C(=O)Cn3nc(Cc4cccnc4)c4ccccc4c3=O)CC2)cc1,inactive: 123%
22,Cn1cc(C(=O)NCCc2ccc(Cl)cc2)c(=O)c2cc(S(=O)(=O)N3CCCCC3)ccc21,inactive: 78%

row,SMILES,survival
1,COC(=O)c1ccc(Cn2nnc3c(=O)[nH]c(C4CCCN(S(=O)(=O)c5ccccc5)C4)nc32)cc1 (stereo not drawn),inactive: 102%
2,COC(=O)c1cc(S(=O)(=O)N2CCN(c3ccc(F)cc3)CC2)cn1C,active: -6%
3,COc1ccccc1CNC(=O)c1ccc2c(c1)CCN2S(=O)(=O)c1ccc(Cl)cc1,inactive: 89%
4,COc1ccc2nc(N(Cc3cccnc3)C(=O)COc3ccccc3)sc2c1,inactive: 72%
5,CCCC(CCC)C(=O)Nc1cccc(-c2nc3cccnc3s2)c1,inactive: 88%
6,CCc1ccccc1NC(=O)N1CCC2(CC1)Oc1ccccc1C(=O)N2Cc1ccccc1F,inactive: 84%
7,CCC(=O)Nc1ccc(-c2nn3c(CC)nnc3s2)cc1,inactive: 95%
8,COc1ccc(CCN2C(=O)N(c3ccc(F)cc3)C(=O)C2CC(=O)Nc2ccc(OC)cc2)cc1 (stereo not drawn),inactive: 72%
9,CCOc1ccc(C(=O)NCC(c2ccc3c(c2)OCO3)N2CCN(c3ccc(F)cc3)CC2)cc1 (stereo not drawn),inactive: 85%
10,CC(=O)Nc1ccc(NS(=O)(=O)c2ccc3[nH]c4c(c3c2)CCCCC4)cc1,inactive: 69%
11,Cc1ccc(-n2nc3c(N4CCC(C(=O)NCCc5ccccc5C)CC4)nnc(C)c3c2C)cc1,inactive: 73%
12,CC(C)(C)c1cc(C(C)(C)C)c2oc(=O)c(-c3nc4ccc(C(=O)O)cc4[nH]3)cc2c1,inactive: 68%
13,CCc1ccccc1NC(=O)C(Cc1cccc(OC)c1)c1nn[nH]n1 (stereo not drawn),inactive: 105%
14,COc1cc(OC)c(NC(=O)N2CCN3CCCCC3C2)cc1Cl (stereo not drawn),inactive: 83%
15,Cn1c(/C(C#N)=C/C2CC=CCC2)nc2ccccc21 (stereo not drawn),inactive: 114%
16,CC1CN(Cn2[nH]c(=O)ccc2=O)CC(C)O1 (stereo not drawn),inactive: 101%
17,Cc1ccc(CN2CCN(C3CCN(C(=O)c4ccc(C)cc4)CC3)C(=O)C2=O)cc1,inactive: 77%
18,CC1CCN(Cc2c(O)ccc3c(=O)c(-c4ccc(Cl)cc4)c(C(F)(F)F)oc23)CC1,inactive: 67%
19,CCOC(=O)c1cnc2cc(-c3ccc(C)cc3)nn2c1C,inactive: 89%
20,Nc1nncn1C(=O)COc1ccc(Cl)cc1,inactive: 110%
21,CC(=O)N1CCc2cc(S(=O)(=O)NC(CC(C)C)C(=O)NCCc3ccccc3)ccc21 (stereo not drawn),inactive: 72%
22,CCOC(=O)c1ccccc1NC(=O)CSc1cc(C)[nH]c(=O)n1,inactive: 69%

row,SMILES,survival
1,COc1ccc(Cl)cc1NC(=O)CCN1C(=O)c2ccccc2Sc2ncccc21,inactive: 79%
2,CC(C)C(=O)N1c2nc(C(C)C)nn2C2(CCCCC2)[C@@H]2CCCC[C@@H]21,inactive: 100%
3,COc1cc(-c2nnc(SCC(=O)Oc3ccccc3)o2)cc(OC)c1OC,inactive: 83%
4,COc1ccc(OC)c(Nc2ncc3c(n2)CCN(Cc2cc(OC)c(OC)c(OC)c2)C3)c1,inactive: 81%
5,Cc1cc(C)c2c(=O)cc(CSc3nnc(-c4ccccc4)n3C)[nH]c2c1,inactive: 74%
6,Cc1ccc(Nc2nc3ccccc3c3nnc(C)n23)cc1Cl,inactive: 45%
7,CSCCC(NS(=O)(=O)c1cccs1)C(=O)Nc1ccc(C)c(Cl)c1 (stereo not drawn),inactive: 81%
8,COC(=O)c1ccc(Cn2c(SCC(=O)NCc3ccccc3)nc3ccccc32)cc1,inactive: 73%
9,CCOc1ccc(CCNC(=O)c2ccc(CS(=O)(=O)c3ccccc3C)o2)cc1OCC,inactive: 77%
10,CCc1ccccc1Nc1ncnc2c1cnn2-c1ccc(Cl)cc1,inactive: 66%
11,CCOC(=O)c1cnc2ccc(C(=O)OC)cc2c1Nc1ccc(N2CCOCC2)cc1,inactive: 115%
12,COc1ccc(Cl)cc1NC(=O)c1ncn(-c2ccccc2)n1,inactive: 67%
13,COc1ccc(OC)c(NC(=O)Cc2c(C)n(C(=O)c3ccc(Cl)cc3)c3ccc(OC)cc23)c1,inactive: 76%
14,CC(=O)c1ccc(NC(=O)CSc2nnc(NC(=O)Nc3ccccc3)s2)cc1,inactive: 88%
15,CCc1ccc(NC(=O)Cn2c(=O)n(-c3ccccc3)c(=O)c3ccc(C(=O)NCc4ccc5c(c4)OCO5)cc32)cc1,inactive: 129%
16,Cc1ccc(C)c(Cn2c(=O)n(Cc3ccco3)c(=O)c3oc4ccccc4c32)c1,inactive: 96%
17,CC(=O)c1cccc(NC(=O)CN2C(=O)c3cccnc3Sc3ccccc32)c1,inactive: 99%
18,O=C(Nc1ccc(N2C(=O)C=CC2=O)cc1Cl)c1ccco1,inactive: 105%
19,CCN1CCOC(=O)C1CC(=O)Nc1ccc(C(C)=O)cc1 (stereo not drawn),inactive: 65%
20,COc1cc(CN(C(=O)c2ccc(OC(C)C)cc2)C2CCS(=O)(=O)C2)cc(OC)c1OC (stereo not drawn),inactive: 106%
21,CCc1ccccc1NC(=O)c1sc2nc3n(c(=O)c2c1C)CCC3,inactive: 90%
22,O=C(NCCCc1nc2ccccc2n1Cc1ccccc1)C1CCCCC1,inactive: 98%

# Source: PubChem BioAssay AID463173 (ICCB-Longwood Screening Facility, Harvard Medical School, 2010)
